Reference: PubChem BioAssay AID463173 (ICCB-Longwood Screening Facility, Harvard Medical School, 2010)
The whole screen tested about 52,000 compounds, of which about 1,700 (3.3%) were called active. Cut-off read from the data, not from the text of the source: active = survival mostly below about 52% (no sharp cut-off); inactive = mostly above about 56%. The list shows a part of the results.

The compounds below were run on Wild type (assay: growth inhibition of S. aureus wild type versus tarO mutant, primary screen, teichoic acid synthesis inhibitors, RN4220, OD600 (AID 463173)). Settings: S. aureus RN4220 wild type/DeltatarO growth, OD600, 18 h, hits give low values, screened at 18.75 µg/mL (by protocol).

Compound	survival
Cc1ccc(-n2ccnc(NCc3ccccc3)c2=O)cc1C	inactive: 72%
CCOc1ccccc1C(=O)Nc1c(NC)c2ccccc2oc1=O	inactive: 76%
CC(C)OC(=O)CC12CN3CC(CC(=O)OC(C)C)(CN(C1)C(=O)c1ccccc1C3=O)C2=O	inactive: 104%
O=C(Nc1cc(C(F)(F)F)ccc1Cl)c1cc2nc(-c3ccc4c(c3)OCO4)cc(C(F)(F)F)n2n1	inactive: 74%
Cn1c(=O)oc2cc(S(=O)(=O)N3CCCC(C(=O)Nc4ccc(Br)cc4F)C3)ccc21 (stereo not given)	inactive: 134%
COc1ccc(OCCCn2c(=O)oc3ccc(C)cc32)cc1	active: 2%
COc1ccc(N(CC(=O)NCc2ccc(F)cc2)S(=O)(=O)c2c(C)n[nH]c2C)cc1	inactive: 86%
CCOC(=O)c1cc2c(ccn2-c2ccc(F)cc2)n1CC(=O)NC1CCCCC1	inactive: 112%
O=C(CSc1nc2c(oc3ccccc32)c(=O)n1Cc1ccco1)Nc1cccc(Cl)c1	inactive: 52%
Cc1cn(C)c(CC(=O)Nc2cccc(Cl)c2C)c1C(=O)O	inactive: 124%
Cc1cc(C)cc(NC(=O)CN2C(=O)c3ccccc3Sc3ccc(C(=O)N4CCOCC4)cc32)c1	inactive: 69%
COc1cc2c(cc1NS(=O)(=O)c1cccc(C#N)c1)n(C)c(=O)n2C	inactive: 76%
Cc1ccc(C)c(Cn2nnc(C(=O)NCc3ccc(Cl)cc3Cl)c2N)c1	inactive: 80%
CCc1ccc(NC(=O)c2ccc(F)c(S(=O)(=O)N3CCC(C)CC3)c2)cc1	inactive: 119%
Cc1cccc(C(=O)NCCc2sc(-c3ccccc3)nc2C)c1	inactive: 71%
CCOC(=O)c1sc2ccccc2c1S(=O)(=O)Nc1cccc(C(F)(F)F)c1	inactive: 45%
C=CCc1cccc2cc(C(=O)Nc3cccc(Cl)c3)c(=O)oc12	inactive: 76%
Cc1coc2c1c(C)cc1oc(=O)cc(C)c12	inactive: 88%
COc1ccc(CNn2cnnc2)c(O)c1	inactive: 100%
Cc1oc(-c2cccc(Cl)c2)nc1CN1CCCC(C(=O)NCc2ccc(F)cc2)C1 (stereo not given)	inactive: 64%
CCCCN(C)C(=O)C(Cc1ccccc1)NS(=O)(=O)c1ccc2c(c1)c(=O)n(C)c(=O)n2C (stereo not given)	inactive: 127%
COc1ccc(-c2nnc(SCC(=O)Oc3c(C)cccc3C)o2)cc1OC	inactive: 117%
CC(C)OCCCNC(=O)c1ccc2c(=O)n(CCc3ccccc3)c(=O)[nH]c2c1	inactive: 93%

Compound	survival
CN(C)C(=O)Cn1nc(-c2ccccc2)c2ccccc2c1=O	inactive: 98%
CCC(C)NC(=O)c1ccc(-n2c(-c3ccccc3)cc3c2CCCC3)cc1 (stereo not given)	inactive: 112%
COC(=O)c1cc(NC(=O)Cn2nc(C)n3cccc3c2=O)cc(C(=O)OC)c1	inactive: 91%
CCOC(=O)C1=C(CS(=O)(=O)c2ccc(Br)cc2)NC(=O)NC1c1ccccc1 (stereo not given)	inactive: 85%
Cc1ccccc1CNC(=O)c1ccc(-c2nc(CS(=O)(=O)c3ccccc3)c(C)o2)cc1	inactive: 75%
CCc1cccc(C)c1NC(=O)c1cc(C)nc2c1c(C)nn2-c1cccc(Cl)c1C	inactive: 78%
CC(=O)Oc1cn(C(C)=O)c2ccccc12	inactive: 84%
COc1ccc(C)cc1NC(=O)CN(c1cc(C(F)(F)F)ccc1Cl)S(C)(=O)=O	inactive: 76%
CC(Sc1nnc2c(n1)[nH]c1ccccc12)C(=O)NC(C)(C)C (stereo not given)	inactive: 108%
CC(=O)c1c(C)oc2ccc(N(C(=O)Oc3ccccc3)S(=O)(=O)c3ccc(C(C)(C)C)cc3)cc12	inactive: 132%
O=C(COc1ccc(Cl)cc1Cl)NC1CCSC1=O (stereo not given)	inactive: 129%
COc1cc(NC(=O)c2cc(Cl)c(OC)c(Cl)c2)ccc1NC(=O)c1cc2ccccc2o1	inactive: 99%
COc1ccccc1CNC(=O)CCn1c(=O)c2ccccc2n(CC(=O)Nc2ccc(C)cc2C)c1=O	inactive: 91%
Cc1cc(OC(=O)c2cc(-c3ccc4c(c3)OCCO4)on2)ccc1Cl	active: -6%
COc1ccc2c(c1)-c1nc(NC(=O)c3cc(Cl)ccc3OC)sc1CC2	inactive: 74%
Cc1ccc(CN2CCCn3nc(C(=O)NCCc4ccc(Cl)cc4)cc3C2=O)cc1	inactive: 73%
CN1c2ccccc2-c2nc(SCC(=O)Nc3ccccc3C(F)(F)F)ncc2S1(=O)=O	inactive: 69%
Cc1ccc(CSc2nc3ccc(NC(=O)C(C)C)cc3s2)cc1	inactive: 97%
CCc1nn2c(=O)c(S(=O)(=O)Nc3ccc(OC)c(Cl)c3)c(C)nc2s1	inactive: 67%
O=C(NCC(c1cccnc1)N1CCN(Cc2ccccc2)CC1)C(=O)Nc1ccc(Cl)cc1 (stereo not given)	inactive: 79%
COc1ccc(C(CC(=O)Nc2ccc(C)c(C)c2)N2Cc3ccccc3C2=O)cc1OC (stereo not given)	inactive: 66%
CCN(Cc1ccccc1)C(=O)Cn1c(=O)n(Cc2ccccc2)c(=O)c2c1c1cc(OC)ccc1n2C	inactive: 64%
Cc1ccc2c(=O)cc(CSc3ccccc3)[nH]c2c1C	inactive: 94%

Compound	survival
Cc1ccc(CSCC(=O)N2CCN(c3ccc(F)cc3)CC2)cc1	inactive: 79%
CC(C)c1ccc(S(=O)(=O)c2nnn3c2nc(NC2CCCC2)c2sccc23)cc1	inactive: 88%
CC(=O)c1cccc(S(=O)(=O)NCCc2csc3nc(-c4ccc(F)cc4)nn23)c1	inactive: 75%
O=C1CCC(C2CCC(=O)N2)N1 (stereo not given)	inactive: 99%
Cc1nc(CC(=O)Nc2cccc(C)c2C)cs1	inactive: 86%
COc1ccc(C(=O)NCc2ccc3c(c2)CCN3C(=O)c2ccncc2)cc1	inactive: 75%
COc1ccc(OC)c(NC(=O)c2c(NCc3ccc(C)o3)sc3c2CCC(C)C3)c1 (stereo not given)	inactive: 64%
O=S(=O)(c1ccc2ccccc2c1)n1nc(-c2ccco2)nc1NCc1ccc(F)cc1	inactive: 116%
Cc1cc(C)cc(C(=O)N(Cc2nc(-c3ccc(Cl)cc3)no2)C(C)C)c1	inactive: 17%
CCOc1ccccc1NC(=O)CN1C(=O)CC(c2ccco2)Sc2ccccc21 (stereo not given)	inactive: 92%
Cc1cc(NC(=O)CCCn2c(C)c3cnn(-c4ccccc4)c(=O)c3c2C)ccc1Br	inactive: 76%
CCN(C(=O)CSc1ncc(S(=O)(=O)c2ccc(C)c(Cl)c2)c(=O)[nH]1)c1cccc(C)c1	inactive: 95%
COCCNC(=O)C(=O)NCC(c1ccc2c(c1)OCO2)N1CCOCC1 (stereo not given)	active: -3%
COCCCNC(=O)c1c(NC(=O)c2nc(S(C)(=O)=O)ncc2Cl)sc2c1CCCC2	inactive: 75%
Cc1ccc(C(=O)Nc2ccc(-c3nc4ccccc4s3)c(O)c2)c(C)c1	inactive: 91%
CCCCN(C)CCNC(=O)c1cc(=O)[nH]c2ccc(S(=O)(=O)N3CCCCCC3)cc12	inactive: 71%
Cc1cc(NC(=O)c2ccc(-c3ccc(Cl)cc3)o2)cc(-c2nc3ncccc3o2)c1O	inactive: 73%
Cc1ccc(CNC(=O)c2cnc(N(C)C)nc2)cc1	inactive: 126%
COc1ccc(-c2nc(C(=O)Nc3cccc(C(C)=O)c3)nn2-c2ccc(Cl)cc2)cc1	inactive: 113%
Cc1ccccc1C(C(=O)Nc1ccc(F)cc1)N(Cc1ccco1)C(=O)Cn1nnc2ccccc21 (stereo not given)	inactive: 122%
Cc1ccc(NC(=O)c2ncn(-c3ccccc3)n2)cc1Cl	inactive: 83%
COc1ccc(NC(=O)c2oc3ccccc3c2NC(=O)c2cc(=O)c3c(C)cc(C)cc3o2)cc1	inactive: 84%
Cc1nc(-n2nc(C)c(Cc3ccccc3Cl)c2C)sc1C(=O)N1CCCCC1C (stereo not given)	inactive: 71%

Compound	survival
Cc1ccc(NC(=O)CS(=O)(=O)c2nc(-c3ccc(C)cc3)cn2-c2ccc(C)cc2)cc1	inactive: 93%
Cc1ccc(CSc2n[nH]c(-c3ccccc3O)n2)cc1	inactive: 105%
CCOc1ccccc1NC(=O)CC1C(=O)NCCN1C(=O)c1ccc(F)cc1 (stereo not given)	inactive: 71%
COc1ccc(OC)c(Nc2nc3ccccc3n3c(C)nnc23)c1	inactive: 83%
CCC(C(=O)O)C(C)CC(=O)Nc1ccccc1Cl (stereo not given)	inactive: 110%
COc1ccc(COC(=O)c2[nH]c3c(c2C)C(=O)CC(c2ccc(OC)c(OC)c2)C3)cc1 (stereo not given)	inactive: 92%
C#CC(C)(CC)NC(=O)Cn1nnc(-c2ccc(OCc3ccccc3F)cc2)n1 (stereo not given)	inactive: 100%
COc1ccc(-c2nc(CN3CCC(C(=O)NCCCN4CCN(c5ccccc5F)CC4)CC3)c(C)o2)cc1OC	inactive: 91%
O=C(Nc1cc(-c2nc3cc(Cl)ccc3o2)ccc1Cl)c1cccs1	inactive: 79%
CC1CCCC(C)N1C(=O)Cn1c(SCC(=O)NCc2ccco2)nc2ccccc21 (stereo not given)	inactive: 102%
Cc1cccc(-c2nc3ccccc3o2)c1	inactive: 119%
COCCCNC(=O)c1cc2n(n1)CCCN(Cc1ccc(C)cc1)C2=O	inactive: 91%
O=C(CSc1nnc(CNC(=O)c2c(F)cccc2Cl)o1)Nc1ccccc1F	inactive: 92%
O=C1NCCCC1C(=O)Nc1ccncc1 (stereo not given)	inactive: 100%
O=C(N=C1SCC(=O)N1c1ccccc1)c1ccco1	inactive: 105%
CCC(=O)N1c2ccccc2CC1C(=O)NCc1ccccc1C (stereo not given)	inactive: 140%
COc1ccc(OC)c(NC(=O)c2cc3c(s2)-c2ccccc2SC3)c1	inactive: 65%
COc1ccccc1-c1c(C)nn2c(N3CCN(c4cccc(Cl)c4)CC3)cc(C)nc12	inactive: 49%
Cc1c(NS(=O)(=O)c2cccc(C(=O)O)c2)c(=O)n(-c2ccccc2)n1C	inactive: 80%
CC1=C(C(=O)OCc2ccc(C)cc2)C(c2c(Cl)cccc2Cl)CC(=O)N1 (stereo not given)	inactive: 85%
CS(=O)(=O)c1ncc(N(Cc2ccco2)Cc2ccco2)c(C(=O)Nc2ccccc2Br)n1	inactive: 101%
